{
  "source": "paper PMC11243198",
  "about": "“Identification of Novel GANT61 Analogs with Activity in Hedgehog Functional Assays and GLI1-Dependent Cancer Cells” (Molecules, 2024)",
  "key": {"U87MG cells": {"system": "U87MG cells", "experiment": "Cancer cell viability MTT assay, U87MG", "assay_type": "cell-based, human", "conditions": "72 h", "procedure": "(§1) Glioma cell lines T98G and U87MG were plated in 384-well (clear, flat-bottomed) plates in EMEM/10% FBS (50 µL) at densities of 1500 and 2500 cells/well, respectively. Lung cancer cell lines SK-MES-1 and H1437 were plated at cell densities of 1000 cells/well in 50 µL EMEM and 2000 cells/well in 50 µL RPMI-1640, respectively. After 24 h, cells were treated with selected GANT61 analog compounds using a 10-point, 2-fold dose–response curve (0.098–50 µM) and incubated at 37 °C for 72 h. To assess cell viability, MTT was added to each well at a final concentration of 0.5 mg/mL using a Biomek®NX (Brea, CA, USA) automated liquid handler followed by incubation for 4 h at 37 °C. Media and MTT were then removed, DMSO (40 µL) was added to each well to dissolve the formed formazan crystals, and they were incubated for 1 h. Absorbance was then measured at 550 nm using a SpectraMax plate reader (Molecular Devices, San Jose, CA, USA). Cells treated with 0.1% DMSO were used as a control. The absorbance values from compound-treated wells were normalized to the control. The normalized absorbance values were used to calculate the percentage of viable cells remaining after treatment with the compounds. Data were analyzed using Prism 9 (GraphPad, Boston, MA, USA)."}, "T98G cells": {"system": "T98G cells", "experiment": "Cancer cell viability MTT assay, T98G", "assay_type": "cell-based, human", "conditions": "72 h", "procedure": "as §1"}, "Gli1 mRNA expression": {"system": "Gli1 mRNA expression", "conditions": "SAG 30 nM; for reduction of Gli1 mRNA expression compared to SAG-treated cells: 10 μM"}, "H1437 cells": {"system": "H1437 cells", "experiment": "Cancer cell viability MTT assay, H1437", "assay_type": "cell-based, human", "conditions": "72 h, cells with minimal GLI expression", "procedure": "as §1"}, "SK-MES-1 cells": {"system": "SK-MES-1 cells", "experiment": "Cancer cell viability MTT assay, SK-MES-1", "assay_type": "cell-based, human", "procedure": "as §1"}, "[1]": {"system": "Hh pathway in C3H10T1/2 cells", "experiment": "C3H10T1/2 Hedgehog-responsive cell-based assay, alkaline phosphatase (AP) fluorescence readout", "set-up": "species or system murine", "conditions": "for EC50: agonist dose response, 5 days, read-out: EC50 of Smo agonist, C3H10T1/2 AP activity"}, "[2]": {"system": "Gli-luciferase reporter NIH3T3 cell line", "experiment": "Gli-luciferase NIH3T3 reporter assay", "assay_type": "cell-based", "procedure": "In these engineered NIH3T3 cells, the gene for firefly luciferase was stably integrated to be under the transcriptional control of Gli-responsive elements.\nGli reporter NIH3T3 cells (BPS Bioscience, catalog# 60409), a stable cell line that contains firefly luciferase gene under the control of Gli-responsive elements, were used to measure Hh pathway activity. Cells were grown in 96-well plates at a density of 25,000 cells/well for 24 h in Thaw Medium 5 (BPS Bioscience). After 24 h, the medium was replaced with fresh assay media (100 μL) using a Biomek®NX (Brea, CA, USA) automated liquid handler. […] To assess inhibition, the GANT61 analogs were added (serial dilutions of 0.098 to 50 μM) using a D300 system, and cells were then incubated at 37 °C for 30 h. Firefly luciferase activity was measured using the One-Step Luciferase Assay, according to vendor’s protocol (BPS Bioscience, catalog # 60690-1). Briefly, One-Step luciferase reagent (100 μL) was added to each well and incubated by shaking for 20 min at room temperature, followed by luminescence detection using a GloMax plate reader (Promega). To account for background luminescence, cell-free control wells were included. The background-subtracted luminescence of cells stimulated with SAG alone was set as 100% luminescence for calculating percent inhibition of the test compounds. […]"}, "[3]": {"system": "Gli reporter NIH3T3 cells", "experiment": "Cytotoxicity assay (Hoechst 33342 nuclei count) in Gli reporter NIH3T3 cells", "assay_type": "cell-based", "conditions": "30 h", "procedure": "(§2) These cells were stimulated with SAG, selected GANT61 analogs added in dose–response, and the effects on cell number determined using the nuclear stain Hoechst 33342 [70].\n(§3) Cells were plated and treated with SAG (at its EC50 concentration), and compounds were added in dose–response as above. […] For Gli reporter NIH3T3 cells, Hoechst dye was added 24 h after treatment. Cells were incubated with the Hoechst dye for 45 min at 37 °C. Following incubation, cells were washed with (50 μL) PBS (phosphate-buffered saline), fixed with formalin (20 μL), and incubated in the dark at room temperature for 15 min. After fixing the cells, formalin was removed, and 50 μL of PBS added. High-content imaging was performed using a Cellinsight NXT system (Thermo Fisher) at an excitation wavelength of 386 nm. Data were analyzed using GraphPad Prism 9."}, "C3H10T1/2 cells": {"system": "C3H10T1/2 cells", "experiment": "Cytotoxicity assay (Hoechst 33342 nuclei count) in C3H10T1/2 cells", "assay_type": "cell-based, murine", "conditions": "20 μM, 5 days, SAG-stimulated", "procedure": "as §2, §3"}},
  "note": "Values joined by “and” are separate entries in the source; they are usually repeats but may differ in a detail not shown here. Identical values can stand only once. Like-named read-outs stand apart in the source and are kept apart here.",
  "data": [
    {"smiles": "N#Cc1ccc(C(=O)Nc2ccccc2C(=O)NC2CC2)cc1", "note": "[Compound Z27610715]", "values": [
      {"measurement": "effect on U87MG cell viability", "setting": "U87MG cells", "result": "minimal effect"},
      {"measurement": "reduction in T98G cell viability", "setting": "T98G cells; 50 μM", "result": 19.2, "unit": "%"},
      {"measurement": "reduction of Gli1 mRNA expression compared to SAG-treated cells", "setting": "Gli1 mRNA expression; 48 h", "result": "ineffective"},
      {"measurement": "reduction of Gli1 mRNA expression compared to SAG-treated cells", "setting": "Gli1 mRNA expression; 96 h", "result": 4.5, "unit": "fold"}
    ]},
    {"smiles": "c1cc(CNc2ccc(N3CCCC3)cc2)ccn1", "note": "[BAS 07019774, pyridin-4-ylmethyl-(4-pyrrolidin-1-yl-phenyl)-amine]", "values": [
      {"measurement": "IC50", "setting": "U87MG cells; Homo sapiens, U-87 MG", "result": 9500, "unit": "nM"},
      {"measurement": "IC50", "setting": "T98G cells; Homo sapiens, T98G", "result": 29500, "unit": "nM"},
      {"measurement": "effect on H1437 cell viability", "setting": "H1437 cells", "result": "did not affect the viability"},
      {"measurement": "IC50", "setting": "SK-MES-1 cells; Homo sapiens, SK-MES-1, 72 h", "result": 9300, "unit": "nM"},
      {"measurement": "Activity among the fifty-two analogs screened (preliminary SAR)", "setting": "[1]; screening for Hh pathway inhibition", "result": "active"},
      {"measurement": "reduction of Gli1 mRNA expression compared to SAG-treated cells", "setting": "Gli1 mRNA expression; 48 h", "result": 4.9, "unit": "fold"},
      {"measurement": "reduction of Gli1 mRNA expression compared to SAG-treated cells", "setting": "Gli1 mRNA expression; 96 h", "result": 2.2, "unit": "fold"}
    ]},
    {"smiles": "CC1=C2C[C@H]3[C@@H](CC=C4CC(=O)CC[C@@]43C)[C@@H]2CC[C@]12O[C@@H]1C[C@H](C)CN(CCNC(=O)CCCCCNC(=O)CCc3ccccc3)[C@H]1[C@H]2C", "note": "[KAAD-cyc, KAAD-cyclopamine, reference compound]", "values": [
      {"measurement": "IC50", "setting": "[1]; read-out: IC50 of positive inhibitor control, C3H10T1/2 AP fluorescence", "result": "6.2 nM and 6 nM"},
      {"measurement": "decrease of SAG-induced Gli1 mRNA expression", "setting": "Gli1 mRNA expression; KAAD-cyc 40 nM (IC90), 48 h", "result": "six-fold decrease"},
      {"measurement": "IC50", "setting": "[2]; SAG 26 nM, read-out: IC50 of positive control inhibitor, Gli-luciferase NIH3T3", "result": "9 nM and 8.8 nM"}
    ]},
    {"smiles": "CN(C)c1ccccc1CN1CCCN(Cc2ccccc2N(C)C)C1c1ccncc1", "note": "[GANT61]", "values": [
      {"measurement": "cell count reduction, Gli reporter NIH3T3", "setting": "[3]; 25 μM", "result": 49.4, "unit": "%"},
      {"measurement": "cell count reduction, Gli reporter NIH3T3", "setting": "[3]; 50 μM", "result": 86.5, "unit": "%"},
      {"measurement": "effect on U87MG cell viability", "setting": "U87MG cells", "result": "less effective than BAS 07019774"},
      {"measurement": "effect on H1437 cell viability", "setting": "H1437 cells", "result": "some effect on the viability of these cells at high concentrations"},
      {"measurement": "reduction of C3H10T1/2 cell number", "setting": "C3H10T1/2 cells", "result": 93.5, "unit": "%"},
      {"measurement": "effect on SK-MES-1 cell viability", "setting": "SK-MES-1 cells; 72 h", "result": "modest effect"},
      {"measurement": "reduction of Gli1 mRNA expression compared to SAG-treated cells", "setting": "Gli1 mRNA expression; 48 h", "result": 20.4, "unit": "fold"}
    ]},
    {"smiles": "c1ccc2c(Oc3nc(Nc4ccc(N5CCOCC5)cc4)c4ncn(C5CCCCC5)c4n3)cccc2c1", "note": "[PUR, Purmorphamine, reference compound]", "values": [
      {"measurement": "EC50", "setting": "[1]; Mus musculus, C3H 10T1/2, 120 h", "result": 500, "unit": "nM"}
    ]},
    {"smiles": "CNC1CCC(N(Cc2cccc(-c3ccncc3)c2)C(=O)c2sc3ccccc3c2Cl)CC1", "note": "(centres unmarked) [SAG, reference compound]", "values": [
      {"measurement": "EC50", "setting": "[1]", "result": 30, "unit": "nM"},
      {"measurement": "increase of Gli1 mRNA expression versus untreated cells", "setting": "Gli1 mRNA expression; 48 h", "result": 27, "unit": "fold"},
      {"measurement": "increase of Gli1 mRNA expression versus untreated cells", "setting": "Gli1 mRNA expression; 96 h", "result": 278, "unit": "fold"},
      {"measurement": "EC50", "setting": "[2]; agonist dose response, 30 h", "result": 26, "unit": "nM"}
    ]}
  ]
}
